Patent US20230024528A1, “METHODS OF USE OF ANTI-TREM2 ANTIBODIES” (Alector LLC, priority 2019, published 2023)

Legend:
human macrophages [1] = test: Human macrophage cell viability and survival following CSF1R inhibition with PLX3397, CellTiter-Glo; assay type: cell-based
Experimental: To evaluate the ability of an anti-TREM2 antibody to sustain survival of human macrophages after CSF1R inhibition, the ability of AL2p-58 huIgG1 PSEG to enhance cell-viability and survival in the presence of CSF1R inhibitor PLX3397 was tested (DeNardo et al., Cancer Discov (2011) 1(1):54-67. 22039576t; Peng, et al., J. of Exp Canc Res (2019) 38(1):372. PMID: 31438996). Similar to CSF1 withdrawal experiments, human derived macrophages were plated onto 96-well plates on Day 6 and treated with IgG1, PLX3397 (30 nM), AL2p-58 huIgG1 PSEG (10 μg/mL) or a combination of PLX3397 and AL2p-58 huIgG1 PSEG on Day 7, all in complete RPMI media. Cell viability was quantified using the CellTiter-Glo luminescent viability assay (Promega) on each subsequent day.

CSF1R protein [2] = test: CSF1R protein expression in brain of non-human primates treated with antibody (Example 3); assay type: in vivo
Experimental: Non-human primates were treated with a control IgG or with increasing concentrations of AL2p-58 huIgG1 PSEG antibody. The level of CSF1R protein in samples from the frontal cortex was measured.

human macrophages [3] = test: Human macrophage cell viability following CSF1 (M-CSF) withdrawal, CellTiter-Glo; assay type: cell-based; settings: 10 μg/mL antibody, serum-free RPMI; compared to M-CSF alone (50 ng/mL), IgG1 (10 μg/mL) or antibody at 1 μg/mL; N=3 donors
Excerpt: To evaluate the ability of an anti-TREM2 agonistic antibody to sustain survival of human macrophages after CSF1 withdrawal, human monocytes were isolated from whole blood using RosetteSep Human Monocyte Enrichment Protocol (Stem Cell Technologies). To prepare human monocyte derived macrophages, monocytes were counted and plated in complete RPMI media (RPMI supplemented with Glutamax, penicillin/streptomycin, non-essential amino acids, sodium-pyruvate, and 10% heat inactivated fetal bovine serum) and 50 ng/ml M-CSF (Peprotech). After 6 days, differentiated monocytes (macrophages) were harvested and plated onto 96-well plates at a density of 1.0×10^3 cells/well in complete RPMI media with M-CSF. Cells were allowed to recover overnight. On Day 7, cell media was replaced with serum-free RPMI media and cells were treated with M-CSF only (50 ng/mL), IgG1 (10 μg/mL), AL2p-58 huIgG1 PSEG (1 μg/mL), or AL2p-58 huIgG1 PSEG (10 μg/mL). Cell viability was quantified using the CellTiter-Glo luminescent viability assay (Promega) on each subsequent day post M-CSF withdrawal.

CSF1R protein [4] = test: CSF1R protein levels in frontal cortex and hippocampus after five weekly intravenous doses (Example 4); assay type: in vivo, cynomolgus monkeys; settings: 48 hours after 5th weekly intravenous dose, versus control-treated animals, N=5 per group
Experimental: Cynomolgus monkeys were administered weekly doses of control or anti-TREM2 antibody AL2p-58 huIgG1 by intravenous injection for a total of five doses (N=5 per dose group). Forty-eight hours after the 5th dose, brain tissue was harvested and corresponding lysates were analyzed for CSF1R protein expression.

Molecule | cell viability of PLX3397-treated cells also treated with antibody (human macrophages [1]; PLX3397 30 nM + antibody 10 μg/mL, versus PLX3397 alone) | survival of human macrophages in the presence of CSF1R inhibition (human macrophages [1]; antibody 10 μg/mL with PLX3397 30 nM, complete RPMI media) | CSF1R levels in the frontal cortex at the highest antibody concentration (CSF1R protein [2]; highest concentration, 12.5× higher than the lowest, versus control, student's t-test) | CSF1R in the hippocampus (CSF1R protein [2]; hippocampus, in a comparable study) | CSF1R protein expression in the frontal cortex (CSF1R protein [2]; increasing concentrations of antibody, compared to control IgG) | cell viability (fold change) following withdrawal of M-CSF (human macrophages [3]) | CSF1R protein levels in the frontal cortex (CSF1R protein [4]) | CSF1R protein levels in the hippocampus (CSF1R protein [4])
AL2p-58 huIgG1 PSEG: agonist anti-TREM2 antibody, human IgG1 Fc with P331S and E430G; heavy chain SEQ ID NO: 43 or 44, light chain SEQ ID NO: 47 (antibody) heavy: QVQLVQSGAEVKKPGASVKVSCKASGYAFSSQWMNWVRQAPGQRLEWIGRIYPGGGDTNYAGKFQGRVTITADTSASTAYMELSSLRSEDTAVYYCARLLRNQPGESYAMDYWGQGTLVTVSS[gap - human IgG1 constant region with P331S E430G (EU numbers)] light: DVVMTQSPDSLAVSLGERATINCRSSQSLVHSNRYTYLHWYQQKPGQSPKLLIYKVSNRFSGVPDRFSGSGSGTDFTLKISRVEAEDVGVYYCSQSTRVPYTFGQGTKLEIKRTVAAPSVFIFPPSDEQLKSGTASVVCLLNNFYPREAKVQWKVDNALQSGNSQESVTEQDSKDSTYSLSSTLTLSKADYEKHKVYACEVTHQGLSSPVTKSFNRGEC | significant improvement in cell viability | sustained survival of human macrophages | an increase in CSFR1 levels that was statistically significant compared to control | increased CSFR1 in the hippocampus was observed but not consistently | increased CSF1R protein expression | significantly increased cell viability | – | –
AL2p-58 huIgG1: variant of anti-TREM2 antibody AL2p-58 huIgG1 PSEG having an Fc comprising wild-type IgG1 (antibody) heavy: QVQLVQSGAEVKKPGASVKVSCKASGYAFSSQWMNWVRQAPGQRLEWIGRIYPGGGDTNYAGKFQGRVTITADTSASTAYMELSSLRSEDTAVYYCARLLRNQPGESYAMDYWGQGTLVTVSS[gap - human IgG1 constant region] light: DVVMTQSPDSLAVSLGERATINCRSSQSLVHSNRYTYLHWYQQKPGQSPKLLIYKVSNRFSGVPDRFSGSGSGTDFTLKISRVEAEDVGVYYCSQSTRVPYTFGQGTKLEIKRTVAAPSVFIFPPSDEQLKSGTASVVCLLNNFYPREAKVQWKVDNALQSGNSQESVTEQDSKDSTYSLSSTLTLSKADYEKHKVYACEVTHQGLSSPVTKSFNRGEC | – | – | – | – | – | – | significantly increased | significantly increased
